# In PubChem BioAssay AID1508649 (National Center for Advancing Translational Sciences (NCATS), 2021):
# Screen size: about 43,000 compounds; about 830 (1.9%) were called active. This list was built around the results that the source calls inconclusive (neither active nor inactive); the mix of calls is not that of the screen. How the source made its calls: active means clear falling dose curves in both reporters; inconclusive means both reporters move, but less clearly or upward; inactive means either reporter flat; the % is the NLuc reporter signal. Potencies of inconclusive entries are left out as doubtful fits.
# Experiment: Cell-based coincidence reporter assay to measure PMP22 gene transcription in S16 Pmp22-F2sN cells - Primary screen
# Settings: S16 Pmp22-F2sN Schwann cells (luciferase reporters placed in the Pmp22 gene), FLuc/NLuc coincidence luminescence, 24 h; measured here: NLuc reporter readout, at 57.5 µM (top of the series); activity change, negative = inhibition: at the top concentration
# Summary of the method: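 S16 Schwann cells carrying FLuc/NLuc coincidence reporter in the Pmp22 3' UTR treated with compound 24 h at 37C; FLuc then NLuc luminescence read sequentially by dual-luciferase reagents.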
# On the % scale 0 is the no-effect control and ±100 the full control effect; potency means the concentration at half of the fitted maximal effect; tags describe the fitted curve by direction and shape.
SMILES,Potency,"activity change, negative = inhibition"
COc1ccc(-c2cc(C(=O)NCCc3ccccc3)c3c(-c4ccccc4)[nH]nc3n2)cc1,"inconclusive [phenotype inactive, partial curve]",
CCOc1cc(CNCCSc2nnnn2C)cc(Cl)c1OCc1ccc(Cl)cc1,"inconclusive [phenotype inactive, single point]",
Cc1cccc(N2CCN(C(=O)CCCn3ncn4c(cc5occc54)c3=O)CC2)c1C,"inconclusive [phenotype inactive, partial curve, poor fit]",
Cc1ccc(C)c(N2CCN(CCCNC(=O)c3ccc4nc(C(C)C)oc4c3)CC2)c1,active: 11.2 µM,
Cn1c(C(=O)Nc2cccc(Cl)c2)cc2c(=O)n(C)c3ccccc3c21,"inconclusive [phenotype inactive, partial curve]",
CCCn1c2ccc(C)cc2c2nnc(SCCN3CCCCC3)nc21,"inconclusive [phenotype inactive, partial curve]",
CCc1ccccc1NC(=O)Cn1c(=O)oc2ccccc21,,inactive: -27.6%
CCCN(C(=O)Cn1nc(Cc2cccnc2)c2ccccc2c1=O)c1ccc(C(C)C)cc1,"inconclusive [phenotype inactive, single point]",
Cc1c(NC(=O)c2ccc(-c3ccc(F)cc3)o2)cccc1-c1nc2ncccc2o1,"inconclusive [phenotype inactive, single point]",
COc1ccc2c(CNCCc3ccccc3OC)c(C(=O)O)n(Cc3ccc(F)cc3Cl)c2c1,"inconclusive [phenotype inactive, partial curve, poor fit]",
CCC(=O)N1CCc2cc(Br)cc(S(=O)(=O)N3CCN(c4cccc(Cl)c4)CC3)c21,"inconclusive [phenotype inactive, single point]",
Clc1ccc(-c2noc3ncnc(N4CCCCC4)c23)cc1,active: 12.1 µM,
Cc1ccccc1NC(=O)CSc1nc2ccc(NC(=O)c3ccco3)cc2s1,"inconclusive [phenotype inactive, single point]",
CCn1cc2nc(SCc3ccccc3)n(Cc3ccc(C)cc3)c(=O)c2n1,"inconclusive [phenotype inactive, partial curve, poor fit]",
CCCCN(C)CC(O)Cn1cc(/C=C/C(=O)c2ccc(OCC)cc2)c2ccccc21 (stereo not drawn),"inconclusive [phenotype inactive, partial curve]",
Cc1cccc(-n2ccnc2SCC(=O)Nc2cc(C(F)(F)F)ccc2Cl)c1,"inconclusive [phenotype inactive, single point]",
CC(C)CCn1c(=O)c2sccc2n2c(CCCC(=O)Nc3ccc(F)c(Cl)c3)nnc12,"inconclusive [phenotype inactive, partial curve, poor fit]",
O=C(Nc1ccc2nc(SCC(=O)N3CCc4ccccc43)sc2c1)c1ccc(Cl)cc1,"inconclusive [phenotype inactive, single point]",
Cc1ccc(CNC(=O)c2ccc(NC(=O)c3nsc4ccccc34)cc2)cc1,,inactive: -15.9%

SMILES,Potency,"activity change, negative = inhibition"
O=C(Nc1ccccc1[N+](=O)[O-])c1csnn1,"inconclusive [phenotype inactive, single point]",
CCCN(CCC)CCNC(=O)c1cc(Sc2ccc(Cl)cc2)nc2ccccc12,"inconclusive [phenotype inactive, partial curve]",
COc1ccc(OC)c(NC(=O)CCc2c(C)nc3c(-c4ccccc4)c(C)nn3c2C)c1,"inconclusive [phenotype inactive, single point]",
CCc1cccc(NC(=O)c2ccc3c(=O)n4nc(Nc5ccccc5OC)sc4nc3c2)c1,active: 4.47 µM,
CCOc1ccc(-n2c(SC(C)C(=O)OC)nc3c([nH]c4ccccc43)c2=O)cc1 (stereo not drawn),,inactive: -52.9%
Cc1ccc(OC(C)C(=O)NCC2(N3CCOCC3)CCCCC2)cc1C (stereo not drawn),"inconclusive [phenotype inactive, single point]",
O=c1cc(COc2cccc(C(F)(F)F)c2)nc2sc3c(n12)CCCC3,,inactive: -19.3%
CCOC(=O)c1c(NC(=O)c2ccc(S(=O)(=O)N(C)C)cc2)sc2c1CCN(C)C2,"inconclusive [phenotype inactive, single point]",
CC(C)c1nn2c(=O)cc(COC(=O)c3ccc(NC(=O)c4ccccc4Cl)cc3)nc2s1,"inconclusive [phenotype inactive, single point]",
Cc1ccc(-n2nc(CO)c(C(=O)NCCO)n2)cc1,,inactive: 5.85%
COc1cccc(-c2nnc3n(CCc4ccccc4)c(=O)c4ccccc4n23)c1O,"inconclusive [phenotype inactive, partial curve, poor fit]",
Cn1cc(S(=O)(=O)N2CCCC2)cc1C(=O)Nc1ccc(C(F)(F)F)cc1,,inactive: -27.4%
Cc1cccc2sc(N(Cc3cccnc3)C(=O)Cc3ccccc3)nc12,"inconclusive [phenotype inactive, single point]",
CCOC(=O)C1=C(c2ccccc2)Nc2ncnn2C1c1ccc(Cl)cc1 (stereo not drawn),,inactive: -19.3%
CCCCN(CC)CCCNC(=O)C1CCN(c2nc3ccc(CC)cc3s2)CC1,"inconclusive [phenotype inactive, single point]",
Cc1nnc(SCC(=O)NCc2ccc(N(C)C)cc2)c2nn(-c3ccccc3)c(C)c12,"inconclusive [phenotype inactive, single point]",
COc1ccccc1C(=O)Nc1ccccc1SCc1cc(=O)c2ccccc2[nH]1,"inconclusive [phenotype inactive, single point]",
COc1cccc(NC(=O)Cn2nc3c4ccccc4n(Cc4cccc(F)c4)cc-3c2=O)c1,,inactive: -41.7%
CC(NC(=O)C(=O)Nc1c2c(nn1-c1ccccc1)CSC2)c1ccccc1 (stereo not drawn),"inconclusive [phenotype inactive, single point]",
